{
  "source": "the supplement of paper PMC11417369",
  "note": "± gives the standard deviation of the averaged measurements. The list shows a part of the results.",
  "data": [
    {"tested_on": "PfAP2-G AP2 domain (GST-tagged)", "assay": "gcPBM binding intensity (ln(normalized median fluorescence intensity)); higher = stronger DNA binding", "procedure,_shortened": "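The highest Masliner-normalised natural-log median intensity across replicate spots of either probe orientation is reported as binding intensity. GST-tagged P. falciparum DNA-binding domains expressed in E. coli were applied for 1 h to an Agilent 4 × 180k array of primer-extended double-stranded 36-bp intergenic genomic probes plus negative controls, and bound protein was detected with Alexa488 anti-GST antibody and scanned at 488 nm.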", "values": [
      {"sequence": "ATATTTTTGTTCAGGAGTACAGTTCAAGATGAAAAT [XGTACX_site4178]", "gcPBM binding intensity (ln)": "11.6 ± 0.99"},
      {"sequence": "TTTTTTATATATGTGTGTGTGTGTGTGTCAAGTTTA [GTGCAC_negctrl_site460]", "gcPBM binding intensity (ln)": "10.3 ± 0.29"},
      {"sequence": "ATAACATAATAGCAACAATTTATTTCCTCTATAACA [CACACA_negctrl_site243]", "gcPBM binding intensity (ln)": "9.805 ± 0.007"},
      {"sequence": "TTTGGGATATTTACAGTGCAAAGATATTTTTATAAT", "gcPBM binding intensity (ln)": "9.97 ± 0.19"},
      {"sequence": "GTGCTAGTATTTAATACACACAATTGAAGTTCCTGA [CACACA_site1452]", "gcPBM binding intensity (ln)": "9.925 ± 0.049"},
      {"sequence": "AATAGATTTTTATGCGTGCACACATTTAACAAAAAA", "gcPBM binding intensity (ln)": "10.6 ± 0.51"},
      {"sequence": "CTTTATCTTTTTCATTGTACTTTATTTTAAAATTAA [XGTACX_site4858]", "gcPBM binding intensity (ln)": "11.5 ± 1"},
      {"sequence": "TGCAGTCTGGAGAAAAGTACACAGTATCTGGTAGCT [XGTACX_site2013]", "gcPBM binding intensity (ln)": "11.4 ± 0.94"},
      {"sequence": "AATATCATAAAATAAAGTACAAATATATATTGAAAA [XGTACX_site8813]", "gcPBM binding intensity (ln)": "11.1 ± 0.66"},
      {"sequence": "AAAAATATAAAGAAATGTACTTATAAAAATCCCTAC [XGTACX_site3824]", "gcPBM binding intensity (ln)": "11 ± 0.62"},
      {"sequence": "TACACCAGTTGTGGGAGTACACAAAAAAAGGGAAAA [XGTACX_site6047]", "gcPBM binding intensity (ln)": "11.7 ± 1"},
      {"sequence": "TTCTGTTCAAAATATGAACACACACCGATATATATA [CACACA_site8637]", "gcPBM binding intensity (ln)": "10.1 ± 0.23"},
      {"sequence": "TAATTTAATTTTCCAAGAAAAAAAAAAGAAAAAAGA [CACACA_negctrl_site1703]", "gcPBM binding intensity (ln)": "9.69 ± 0.042"},
      {"sequence": "TTCTGGTGTAAATGCACACAGAAGAAGAAAAAAAAA [CACACA_site3685]", "gcPBM binding intensity (ln)": "10.1 ± 0.3"},
      {"sequence": "TAACATCCTAATGTCACACATGTTATAGGTTTAAAT [CACACA_site5649]", "gcPBM binding intensity (ln)": "9.975 ± 0.049"},
      {"sequence": "AAAAAAAATAAACACACACACATACCCATAAATATA [CACACA_site5980]", "gcPBM binding intensity (ln)": "10.12 ± 0.049"},
      {"sequence": "TTTTAAAATATATTTGTATATATATATATATATATA [XGTACX_negctrl_site536]", "gcPBM binding intensity (ln)": "10.4 ± 1"},
      {"sequence": "ATAATATAATAATACACACTCATTATATATATAAAG [CACACA_site3956]", "gcPBM binding intensity (ln)": "9.94 ± 0.028"},
      {"sequence": "TCCTTTCTTTTTTAAACATGCATATGTAATATAAAT [TGCATGCA_site979]", "gcPBM binding intensity (ln)": "10 ± 0.26"},
      {"sequence": "CCTTCATCATATTTAACACACAGAGAAAAAGCGGAT [CACACA_site274]", "gcPBM binding intensity (ln)": "10.1 ± 0.17"},
      {"sequence": "AAAAAAAAAAAAAAAAAAACCACAAACAAATATGAA [TGCATGCA_negctrl_site34]", "gcPBM binding intensity (ln)": "10.8 ± 0.44"},
      {"sequence": "TTTACATACAAATTAACACACATATAGAAAAGAGAA [CACACA_site1889]", "gcPBM binding intensity (ln)": "10.06 ± 0.014"},
      {"sequence": "ATATTATTTTGTCAGGGTACATTCCATAAGTTTTTT [XGTACX_site6855]", "gcPBM binding intensity (ln)": "11 ± 0.5"},
      {"sequence": "TTTGAAATATTTATTTGTACATATACACACTTAAAT [XGTACX_site8321]", "gcPBM binding intensity (ln)": "11 ± 0.57"},
      {"sequence": "TTTCTTTTTTTTTTTATTTACCTGAATTATGTATTA [TGCATGCA_negctrl_site345]", "gcPBM binding intensity (ln)": "9.615 ± 0.007"}
    ]}
  ]
}
